{"source": "the supplement of paper PMC8728848", "binders": {"B1": {"name": "Banana lectin (Musa acuminata) (protein)", "chain": "MNGAIKVGAHGGNGGSAFDMGPAYRIISVKIFSGDVVDGVDVTFTYYGKTETRHYGGSGGTPHEIVLQEGEYLVGMAGEVANYHGAVVLGKLGFSTNKKAYGPFGNTGGTPFSLPIAAGKISGFFGRGGKFLDAIGVYLEPLEHHHHHH"}}, "assay_in_all_cases": "glycan array binding signal (z-score within array); higher = stronger binding", "settings_in_all_cases": "glycan notation: IUPAC condensed, linker removed; mutation: W10H", "key": {"[1]": {"biological_target": "Gal(a1-6)Glc", "procedure,_shortened": "(§1)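 Negative Z-scores can be read as non-binding. The Z-score is calculated within each array and then averaged across arrays of one protein sequence at different concentrations or buffers and across linkers. Arrays, 3228 in all, were curated from the Consortium for Functional Glycomics database and kept only where the protein sequence was available.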"}, "[2]": {"biological_target": "Gal(b1-2)Gal", "procedure,_shortened": "as §1"}, "[3]": {"biological_target": "Gal(b1-3)Gal", "procedure,_shortened": "as §1"}, "[4]": {"biological_target": "Gal(b1-3)Gal(b1-4)GlcNAc", "procedure,_shortened": "as §1"}, "[5]": {"biological_target": "Gal(b1-3)GalNAc", "procedure,_shortened": "as §1"}, "[6]": {"biological_target": "Gal(b1-3)GalNAc(a1-3)[Fuc(a1-2)]Gal(b1-4)Glc", "procedure,_shortened": "as §1"}, "[7]": {"biological_target": "Gal(b1-3)GalNAc(a1-3)[Fuc(a1-2)]Gal(b1-4)GlcNAc", "procedure,_shortened": "as §1"}, "[8]": {"biological_target": "Gal(b1-3)GalNAc(b1-3)Gal", "procedure,_shortened": "as §1"}, "[9]": {"biological_target": "Gal(b1-3)GalNAc(b1-3)Gal(a1-4)Gal(b1-4)Glc", "procedure,_shortened": "as §1"}, "[10]": {"biological_target": "Gal(b1-3)GalNAc(b1-4)Gal(b1-4)Glc", "procedure,_shortened": "as §1"}, "[11]": {"biological_target": "Gal(b1-3)GalNAc(b1-4)[Neu5Ac(a2-3)]Gal(b1-4)Glc", "procedure,_shortened": "as §1"}, "[12]": {"biological_target": "Gal(b1-3)GlcNAc", "procedure,_shortened": "as §1"}, "[13]": {"biological_target": "Gal(b1-3)GlcNAc(a1-3)Gal(b1-4)GlcNAc", "procedure,_shortened": "as §1"}, "[14]": {"biological_target": "Gal(b1-3)GlcNAc(a1-6)Gal(b1-4)GlcNAc", "procedure,_shortened": "as §1"}, "[15]": {"biological_target": "Gal(b1-3)GlcNAc(b1-2)Man", "procedure,_shortened": "as §1"}, "[16]": {"biological_target": "Gal(b1-3)GlcNAc(b1-2)Man(a1-3)[Gal(b1-3)GlcNAc(b1-2)Man(a1-6)]Man(b1-4)GlcNAc(b1-4)GlcNAc", "procedure,_shortened": "as §1"}, "[17]": {"biological_target": "Gal(b1-3)GlcNAc(b1-2)Man(a1-3)[Gal(b1-3)GlcNAc(b1-2)Man(a1-6)]Man(b1-4)GlcNAc(b1-4)[Fuc(a1-6)]GlcNAc", "procedure,_shortened": "as §1"}, "[18]": {"biological_target": "Gal(b1-3)GlcNAc(b1-2)Man(a1-3)[GlcNAc(b1-4)][Gal(b1-3)GlcNAc(b1-2)Man(a1-6)]Man(b1-4)GlcNAc(b1-4)GlcNAc", "procedure,_shortened": "as §1"}, "[19]": {"biological_target": "Gal(b1-3)GlcNAc(b1-2)[Gal(b1-3)GlcNAc(b1-6)]Man(a1-6)[Gal(b1-3)GlcNAc(b1-2)Man(a1-3)]Man(b1-4)GlcNAc(b1-4)GlcNAc", "procedure,_shortened": "as §1"}, "[20]": {"biological_target": "Gal(b1-3)GlcNAc(b1-3)Gal(b1-3)GlcNAc", "procedure,_shortened": "as §1"}, "[21]": {"biological_target": "Gal(b1-3)GlcNAc(b1-3)Gal(b1-4)Glc", "procedure,_shortened": "as §1"}, "[22]": {"biological_target": "Gal(b1-3)GlcNAc(b1-3)Gal(b1-4)GlcNAc", "procedure,_shortened": "as §1"}, "[23]": {"biological_target": "Gal(b1-3)GlcNAc(b1-3)Gal(b1-4)GlcNAc(b1-2)Man(a1-3)[Gal(b1-3)GlcNAc(b1-3)Gal(b1-4)GlcNAc(b1-2)Man(a1-6)]Man(b1-4)GlcNAc(b1-4)GlcNAc", "procedure,_shortened": "as §1"}, "[24]": {"biological_target": "Gal(b1-3)GlcNAc(b1-3)Gal(b1-4)GlcNAc(b1-2)[Gal(b1-3)GlcNAc(b1-3)Gal(b1-4)GlcNAc(b1-6)]Man(a1-6)[Gal(b1-3)GlcNAc(b1-3)Gal(b1-4)GlcNAc(b1-2)Man(a1-3)]Man(b1-4)GlcNAc(b1-4)[Fuc(a1-6)]GlcNAc", "procedure,_shortened": "as §1"}, "[25]": {"biological_target": "Gal(b1-3)GlcNAc(b1-3)Gal(b1-4)GlcNAc(b1-3)Gal(b1-4)GlcNAc(b1-2)[Gal(b1-3)GlcNAc(b1-3)Gal(b1-4)GlcNAc(b1-3)Gal(b1-4)GlcNAc(b1-6)]Man(a1-6)[Gal(b1-3)GlcNAc(b1-3)Gal(b1-4)GlcNAc(b1-3)Gal(b1-4)GlcNAc(b1-2)Man(a1-3)]Man(b1-4)GlcNAc(b1-4)[Fuc(a1-6)]GlcNAc", "procedure,_shortened": "as §1"}, "[26]": {"biological_target": "Gal(b1-3)GlcNAc(b1-3)Gal(b1-4)GlcNAc(b1-6)[Gal(b1-3)GlcNAc(b1-3)]Gal(b1-4)Glc", "procedure,_shortened": "as §1"}, "[27]": {"biological_target": "Gal(b1-3)GlcNAc(b1-3)Gal(b1-4)[Fuc(a1-3)]GlcNAc", "procedure,_shortened": "as §1"}, "[28]": {"biological_target": "Gal(b1-3)GlcNAc(b1-3)Gal(b1-4)[Fuc(a1-3)]GlcNAc(b1-6)[Gal(b1-3)GlcNAc(b1-3)]Gal(b1-4)Glc", "procedure,_shortened": "as §1"}, "[29]": {"biological_target": "Gal(b1-3)GlcNAc(b1-3)GalNAc", "procedure,_shortened": "as §1"}, "[30]": {"biological_target": "Gal(b1-3)GlcNAc(b1-6)Gal(b1-4)GlcNAc", "procedure,_shortened": "as §1"}, "[31]": {"biological_target": "Gal(b1-3)GlcNAc(b1-6)GalNAc", "procedure,_shortened": "as §1"}, "[32]": {"biological_target": "Gal(b1-3)GlcNAc(b1-6)[Gal(b1-3)]GalNAc", "procedure,_shortened": "as §1"}, "[33]": {"biological_target": "Gal(b1-3)GlcNAc6S", "procedure,_shortened": "as §1"}, "[34]": {"biological_target": "Gal(b1-3)[Fuc(a1-4)]GlcNAc", "procedure,_shortened": "as §1"}, "[35]": {"biological_target": "Gal(b1-3)[Fuc(a1-4)]GlcNAc(b1-2)Man", "procedure,_shortened": "as §1"}, "[36]": {"biological_target": "Gal(b1-3)[Fuc(a1-4)]GlcNAc(b1-2)Man(a1-3)[Gal(b1-3)[Fuc(a1-4)]GlcNAc(b1-2)Man(a1-6)]Man(b1-4)GlcNAc(b1-4)[Fuc(a1-6)]GlcNAc", "procedure,_shortened": "as §1"}, "[37]": {"biological_target": "Gal(b1-3)[Fuc(a1-4)]GlcNAc(b1-3)Gal(b1-3)[Fuc(a1-4)]GlcNAc", "procedure,_shortened": "as §1"}, "[38]": {"biological_target": "Gal(b1-3)[Fuc(a1-4)]GlcNAc(b1-3)Gal(b1-4)[Fuc(a1-3)]GlcNAc", "procedure,_shortened": "as §1"}, "[39]": {"biological_target": "Gal(b1-3)[Fuc(a1-4)]GlcNAc(b1-6)GalNAc", "procedure,_shortened": "as §1"}, "[40]": {"biological_target": "Gal(b1-3)[GlcNAc(b1-6)]GalNAc", "procedure,_shortened": "as §1"}, "[41]": {"biological_target": "Gal(b1-3)[Neu5Ac(a2-6)]GalNAc", "procedure,_shortened": "as §1"}, "[42]": {"biological_target": "Gal(b1-3)[Neu5Ac(a2-6)]GlcNAc(b1-4)Gal(b1-4)Glc", "procedure,_shortened": "as §1"}, "[43]": {"biological_target": "Gal(b1-3)[Neu5Ac(b2-6)]GalNAc", "procedure,_shortened": "as §1"}, "[44]": {"biological_target": "Gal(b1-4)Gal", "procedure,_shortened": "as §1"}, "[45]": {"biological_target": "Gal(b1-4)GalNAc(a1-3)[Fuc(a1-2)]Gal(b1-4)GlcNAc", "procedure,_shortened": "as §1"}}, "note": "The list shows a part of the results."}
{"binder": "B1", "values": [{"measurement": "glycan array binding signal (z-score)", "setting": "[1]", "result": -0.187}, {"measurement": "glycan array binding signal (z-score)", "setting": "[2]", "result": -0.172}, {"measurement": "glycan array binding signal (z-score)", "setting": "[3]", "result": -0.168}, {"measurement": "glycan array binding signal (z-score)", "setting": "[4]", "result": -0.15}, {"measurement": "glycan array binding signal (z-score)", "setting": "[5]", "result": -0.164}, {"measurement": "glycan array binding signal (z-score)", "setting": "[6]", "result": -0.162}, {"measurement": "glycan array binding signal (z-score)", "setting": "[7]", "result": -0.189}, {"measurement": "glycan array binding signal (z-score)", "setting": "[8]", "result": -0.173}, {"measurement": "glycan array binding signal (z-score)", "setting": "[9]", "result": -0.144}, {"measurement": "glycan array binding signal (z-score)", "setting": "[10]", "result": -0.175}, {"measurement": "glycan array binding signal (z-score)", "setting": "[11]", "result": -0.156}, {"measurement": "glycan array binding signal (z-score)", "setting": "[12]", "result": -0.166}, {"measurement": "glycan array binding signal (z-score)", "setting": "[13]", "result": 1.55}, {"measurement": "glycan array binding signal (z-score)", "setting": "[14]", "result": -0.168}, {"measurement": "glycan array binding signal (z-score)", "setting": "[15]", "result": -0.145}, {"measurement": "glycan array binding signal (z-score)", "setting": "[16]", "result": 0.397}, {"measurement": "glycan array binding signal (z-score)", "setting": "[17]", "result": -0.071}, {"measurement": "glycan array binding signal (z-score)", "setting": "[18]", "result": 0.502}, {"measurement": "glycan array binding signal (z-score)", "setting": "[19]", "result": 0.235}, {"measurement": "glycan array binding signal (z-score)", "setting": "[20]", "result": -0.166}, {"measurement": "glycan array binding signal (z-score)", "setting": "[21]", "result": -0.186}, {"measurement": "glycan array binding signal (z-score)", "setting": "[22]", "result": -0.202}, {"measurement": "glycan array binding signal (z-score)", "setting": "[23]", "result": -0.085}, {"measurement": "glycan array binding signal (z-score)", "setting": "[24]", "result": 0.552}, {"measurement": "glycan array binding signal (z-score)", "setting": "[25]", "result": 0.096}, {"measurement": "glycan array binding signal (z-score)", "setting": "[26]", "result": -0.174}, {"measurement": "glycan array binding signal (z-score)", "setting": "[27]", "result": -0.174}, {"measurement": "glycan array binding signal (z-score)", "setting": "[28]", "result": -0.157}, {"measurement": "glycan array binding signal (z-score)", "setting": "[29]", "result": -0.169}, {"measurement": "glycan array binding signal (z-score)", "setting": "[30]", "result": -0.151}, {"measurement": "glycan array binding signal (z-score)", "setting": "[31]", "result": -0.167}, {"measurement": "glycan array binding signal (z-score)", "setting": "[32]", "result": -0.177}, {"measurement": "glycan array binding signal (z-score)", "setting": "[33]", "result": -0.194}, {"measurement": "glycan array binding signal (z-score)", "setting": "[34]", "result": -0.14}, {"measurement": "glycan array binding signal (z-score)", "setting": "[35]", "result": -0.178}, {"measurement": "glycan array binding signal (z-score)", "setting": "[36]", "result": -0.166}, {"measurement": "glycan array binding signal (z-score)", "setting": "[37]", "result": -0.198}, {"measurement": "glycan array binding signal (z-score)", "setting": "[38]", "result": -0.173}, {"measurement": "glycan array binding signal (z-score)", "setting": "[39]", "result": -0.162}, {"measurement": "glycan array binding signal (z-score)", "setting": "[40]", "result": -0.157}, {"measurement": "glycan array binding signal (z-score)", "setting": "[41]", "result": -0.174}, {"measurement": "glycan array binding signal (z-score)", "setting": "[42]", "result": -0.135}, {"measurement": "glycan array binding signal (z-score)", "setting": "[43]", "result": -0.151}, {"measurement": "glycan array binding signal (z-score)", "setting": "[44]", "result": -0.131}, {"measurement": "glycan array binding signal (z-score)", "setting": "[45]", "result": -0.164}]}
